Data reported in the supplement of paper PMC9046079.
Where a name gives a salt, the structure may show the parent alone. ± gives the standard deviation of the averaged measurements. The list shows a part of the results.

Columns and labels:
[1] = system: murine small intestinal organoids (ENR+CD Paneth differentiation); test: cellular ATP (CellTiter-Glo 3D) relative to plate median (log10 fold change); higher = more viable cells; settings: 6 d
[2] = system: murine small intestinal organoids (ENR+CD Paneth differentiation); test: carbachol-stimulated secreted lysozyme activity relative to plate median (log10 fold change); higher = more Paneth cell lysozyme secretion; settings: 6 d, carbachol 10 µM
[3] = system: murine small intestinal organoids (ENR+CD Paneth differentiation); test: basal (non-stimulated) secreted lysozyme activity relative to plate median (log10 fold change); higher = more Paneth cell lysozyme secretion; settings: 6 d
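Wherever basal (non-stimulated) secreted lysozyme activity relative to plate median is given: ISC-enriched organoid precursors grown as 2.5D pseudo-monolayer on Matrigel, compound given on day 0 and day 3, plate values LOESS-normalized before median fold change, three murine donors.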
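Wherever cellular ATP (CellTiter-Glo 3D) relative to plate median is given: 2.5D pseudo-monolayer culture of ISC-enriched organoids partly embedded atop Matrigel, compound added on day 0 and again on day 3, per-plate LOESS correction before median fold change.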

SMILES | cellular ATP (log10) ([1]; 0.08 µM) | cellular ATP (log10) ([1]; 0.4 µM) | cellular ATP (log10) ([1]; 2 µM) | cellular ATP (log10) ([1]; 10 µM) | carbachol-stimulated secreted lysozyme activity (log10) ([2]; 0.08 µM) | carbachol-stimulated secreted lysozyme activity (log10) ([2]; 0.4 µM) | carbachol-stimulated secreted lysozyme activity (log10) ([2]; 2 µM) | carbachol-stimulated secreted lysozyme activity (log10) ([2]; 10 µM) | basal (log10) ([3]; 0.08 µM) | basal (log10) ([3]; 0.4 µM) | basal (log10) ([3]; 2 µM) | basal (log10) ([3]; 10 µM)
Cn1cc(/C=C2\C(=O)Nc3cccnc32)c2ccccc21 | 0.0476 ± 0.23 | -0.105 ± 0.14 | 0.152 ± 0.15 | -0.113 ± 0.15 | 0.0397 ± 0.066 | 0.286 ± 0.26 | 0.145 ± 0.012 | 0.0988 ± 0.076 | 0.0459 ± 0.0076 | 0.0607 ± 0.038 | 0.117 ± 0.012 | 0.0876 ± 0.18
Cc1cc(OCc2nnc(SC3CCCC3)n2-c2cccnc2)ccc1-c1ccc(S(C)(=O)=O)cc1 | 0.174 ± 0.2 | -0.051 ± 0.03 | -0.91 ± 0.5 | -1.54 ± 0.63 | 0.0756 ± 0.11 | -0.296 ± 0.072 | -0.452 ± 0.042 | -0.47 ± 0.11 | 0.098 ± 0.23 | -0.177 ± 0.12 | -0.27 ± 0.15 | -0.272 ± 0.14
Cc1cc([C@@H](C)Nc2ccccc2C(=O)O)c2nc(N3CCOCC3)cc(=O)n2c1 | 0.24 ± 0.17 | 0.223 ± 0.13 | -0.509 ± 0.77 | -1.2 ± 0.85 | 0.214 ± 0.12 | 0.185 ± 0.15 | -0.175 ± 0.14 | -0.341 ± 0.013 | 0.108 ± 0.084 | 0.0757 ± 0.079 | -0.13 ± 0.15 | -0.248 ± 0.13
CC(=O)c1c(C)c2cnc(Nc3ccc(N4CCNCC4)cn3)nc2n(C2CCCC2)c1=O | 0.169 ± 0.13 | -0.35 ± 0.49 | -0.0833 ± 0.58 | -0.677 ± 0.22 | 0.028 ± 0.11 | -0.0289 ± 0.045 | -0.161 ± 0.14 | -0.274 ± 0.026 | -0.00631 ± 0.1 | -0.0285 ± 0.044 | -0.0505 ± 0.058 | -0.132 ± 0.062
O=C(Nc1cccc(Nc2ncc(Br)c(NCCc3cnc[nH]3)n2)c1)N1CCCC1 | 0.0431 ± 0.23 | 0.0541 ± 0.095 | -0.246 ± 0.15 | -0.397 ± 0.43 | -0.00103 ± 0.082 | 0.0196 ± 0.2 | -0.231 ± 0.067 | -0.361 ± 0.026 | 0.0103 ± 0.084 | 0.0173 ± 0.085 | -0.0886 ± 0.075 | -0.196 ± 0.088
Oc1ccc2ccccc2c1SSc1c(O)ccc2ccccc12 | 0.219 ± 0.031 | -0.332 ± 0.61 | -0.0845 ± 0.028 | -0.0536 ± 0.13 | 0.116 ± 0.056 | -0.0321 ± 0.12 | 0.107 ± 0.15 | -0.014 ± 0.094 | 0.00354 ± 0.07 | 0.00327 ± 0.066 | -0.00109 ± 0.086 | -0.0214 ± 0.06
Clc1ccccc1CN1CCc2sccc2C1 [Ticlopidine HCl] | -0.0887 ± 0.1 | 0.0364 ± 0.14 | -0.186 ± 0.21 | -0.14 ± 0.21 | 0.137 ± 0.13 | 0.0277 ± 0.1 | 0.0279 ± 0.12 | 0.0681 ± 0.0052 | -0.000829 ± 0.046 | 0.0152 ± 0.024 | -0.00343 ± 0.065 | 0.154 ± 0.33
COc1ccc(-c2cnc3c(-c4cccc5ncccc45)cnn3c2)cc1 | 0.184 ± 0.23 | 0.209 ± 0.21 | 0.137 ± 0.17 | -0.169 ± 0.39 | 0.0428 ± 0.028 | 0.0822 ± 0.057 | 0.11 ± 0.056 | -0.222 ± 0.098 | 0.124 ± 0.038 | 0.132 ± 0.03 | 0.0689 ± 0.077 | -0.124 ± 0.13
CCOC(=O)[C@H]1O[C@@H]1C(=O)N[C@@H](CC(C)C)C(=O)NCCC(C)C [Aloxistatin] | -0.00644 ± 0.083 | -0.006 ± 0.17 | -0.129 ± 0.097 | -0.214 ± 0.24 | 0.0277 ± 0.18 | -0.031 ± 0.046 | -0.0933 ± 0.066 | -0.235 ± 0.18 | 0.0196 ± 0.079 | -0.0288 ± 0.054 | -0.0372 ± 0.066 | -0.142 ± 0.086
